# Data taken from the supplement of paper PMC3334620.
# In all, about 33,000 sequences were measured (“E-score (-0.5 to 0.5)”: median about -0.04, highest 2% from about 0.36 on). The list shows a part of the results.
# Molecular target: T1, Hmlalpha2 (UniProt P0CY09)
# T1 sequence: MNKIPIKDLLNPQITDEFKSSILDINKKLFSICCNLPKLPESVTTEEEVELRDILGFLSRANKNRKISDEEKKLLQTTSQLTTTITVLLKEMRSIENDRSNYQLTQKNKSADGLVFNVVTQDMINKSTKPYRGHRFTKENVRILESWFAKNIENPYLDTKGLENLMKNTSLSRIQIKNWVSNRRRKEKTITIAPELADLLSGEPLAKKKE
# Assay: PBM E-score (8-mer binding enrichment) (E-score (-0.5 to 0.5)); higher = stronger / more preferred TF binding; most listed sequences are background and not binding sites
# Settings: protein concentration: 200 nM; construct: GST-full length
# Outline: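 Full-length yeast transcription factors or their DNA-binding domains, GST-tagged and expressed with PURExpress, were applied at about 100-200 nM to universal all-10-mer Agilent arrays. These arrays had been made double-stranded by primer extension on fresh or once-stripped slides. Detection used fluorescent anti-GST, normalisation used masliner, and E-scores for ungapped eight-base words pooled with reverse complements came from the Universal PBM Analysis Suite.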
row,Sequence,PBM E-score
1,AGGAAGCG,-0.1
2,GGCGGGCA,-0.313
3,ACGGACCT,-0.116
4,AGAAGGTG,-0.113
5,GGGGTAAA,0.0723
6,AGTAGGAG,-0.233
7,AGAAAGCT,0.0559
8,CCGCTAGA,-0.254
9,CTGGATGA,-0.152
10,GGGACTGA,-0.324
11,GCTGGGAC,-0.263
12,ACACTCGG,0.0952
13,ATACACTG,0.235
14,GACATACC,0.124
15,AATCCGTA,-0.0718
16,GCACCCTA,-0.0932
17,AATCTTTC,-0.0768
18,GTATGAAC,0.0608
19,AATCACTG,0.098
20,GGTTATAC,0.146
21,CACGTCTA,0.22
22,CACTGCTC,-0.156
23,CGGTGCGC,-0.279
24,AGGTCTGG,-0.101
25,AAGACACT,0.0877

row,Sequence,PBM E-score
1,ATGAGAAT,0.108
2,CGCGAGCG,-0.193
3,ATATACCC,-0.0701
4,AGTTCTTA,-0.00952
5,CGCACGAG,-0.134
6,CTATACAG,0.0549
7,CACCAACC,-0.105
8,ACAATTAA,0.214
9,ACAGTCAG,-0.0101
10,CACACTGG,0.0142
11,CAATCAGA,-0.154
12,AGAAGCGA,0.0343
13,CGTGTCGC,0.214
14,AAACCATA,0.0906
15,GAGCCATA,-0.153
16,CCACGCGA,-0.134
17,AAGAGCAC,0.0584
18,AAGATGAG,-0.105
19,GAGCTAGC,-0.0256
20,CCAAGGGG,-0.225
21,GATAGTGA,-0.0711
22,CTCGCTAC,-0.181
23,CGGGAGTC,-0.258
24,CGTTAACA,0.34
25,ATAACAGG,0.194

row,Sequence,PBM E-score
1,AATAACGT,0.299
2,AACACTTA,0.275
3,CATGGATA,0.195
4,GCGAAAAC,-0.0286
5,ATCGCGAA,0.0801
6,CTGGGCGA,-0.217
7,AAGGCGAT,-0.0245
8,CGAGTTGC,-0.0335
9,ATCGACCG,-0.223
10,GCCTCACA,-0.0267
11,CGAGAAGA,-0.174
12,CGAAATCA,0.0682
13,AAGTAACT,0.115
14,ACTGTTAT,0.105
15,ATCTGCAT,-0.0336
16,ACAAACGA,0.291
17,TCAGTGGA,-0.317
18,CCAGCCGG,-0.222
19,TGCACGAA,0.122
20,AGTGATAG,-0.0114
21,TCAAAAAA,0.0304
22,ATGAGTGA,-0.114
23,TCAACCCA,-0.0535
24,AGGTAAGC,-0.198
25,CTCGGCTC,-0.201

row,Sequence,PBM E-score
1,CAGAAGTA,-0.0394
2,CATGGGGC,0.0176
3,GCAGCCAA,-0.0695
4,CACTGAGG,-0.126
5,GCTCTAAC,-0.151
6,CCAGAATC,-0.0873
7,ATTCTGAC,-0.072
8,ATGTGAAG,0.338
9,CATCATTC,-0.013
10,AATTGAAA,0.0662
11,TGTAGTAA,0.311
12,GATAATCA,-0.0314
13,GTTAGACA,0.231
14,GTCGAGTA,0.195
15,AACGCGAA,0.257
16,ACGCCGCC,-0.0262
17,AGTGAGTA,0.218
18,CACTTTTA,0.117
19,CGCCTCAA,-0.0382
20,AATGCGTG,0.197
21,AATCCGGA,-0.0053
22,CGTGTGTA,0.413
23,ATAACTAT,0.09
24,GGCATGAC,-0.186
25,TACTAATA,0.139

row,Sequence,PBM E-score
1,CGGTGACG,-0.0635
2,GCGCGCAC,0.0127
3,CTCATCTC,-0.16
4,CCAGCGGC,-0.113
5,CTAGTAGC,-0.0933
6,CCTTAGCG,-0.153
7,GCCCAGAA,-0.237
8,AAGGTCTA,-0.174
9,TATTTGAA,0.127
10,CCAACACA,0.248
11,ATTGAAGC,0.129
12,AATCGCAT,0.126
13,CTTAGACA,0.0152
14,ACTCATAC,-0.00755
15,CCTGCTCA,0.127
16,CCGCTGAA,-0.0962
17,ACTACGAG,0.0505
18,GCCTTGAC,-0.109
19,AAAAAGGT,0.155
20,AAGTAACA,0.245
21,AGTTATTC,0.0578
22,GGGGTACC,-0.277
23,CTGGGGAC,-0.186
24,ACTTGGTA,0.196
25,ATACAGTG,0.0218

row,Sequence,PBM E-score
1,CCATACGC,-0.115
2,AGGGTAGG,-0.0165
3,AGTGGTTA,0.036
4,AAAGACTG,-0.0841
5,GTCGTGCA,0.0844
6,AAGCCTTA,-0.194
7,GCGGCGAA,-0.225
8,ATTGTAGA,0.279
9,TAGTAGAA,0.0946
10,GGGCTTAA,-0.171
11,CCTCCACC,-0.332
12,CAACTGGC,-0.203
13,GCTGACCC,-0.195
14,GAGATCGA,-0.094
15,ACGATCAA,0.101
16,ACGGAGCA,-0.0861
17,ACTTTACT,0.109
18,AAATCGCG,0.0275
19,GGTAGAGA,-0.155
20,CAATACCA,0.159
21,TCTACTAA,0.153
22,TGCGCGAA,0.112
23,TCCATCGA,-0.0565
24,TCGGAAGA,-0.11
25,ATGGGGTA,-0.0333

row,Sequence,PBM E-score
1,GATTCGAC,-0.00316
2,ATGGATCC,-0.226
3,GGGTTGTA,0.226
4,GTACCAAA,0.0737
5,CGAGGACG,-0.334
6,CATATGCG,0.0689
7,AACCTCAA,0.0617
8,GGCTCTTA,-0.184
9,CGTATTTC,0.223
10,ATTTACCG,0.152
11,GTCCGGTA,-0.101
12,CTTAGGCA,-0.0256
13,ACCGTCAC,-0.185
14,AAGAGGTA,-0.0482
15,GACATCTC,-0.152
16,AACGCTTA,-0.018
17,CGTTGTAG,0.242
18,TATGCGAA,-0.0422
19,AGGTATCG,-0.17
20,CGCTATTA,0.2
21,CTGGGGTC,-0.17
22,CAAAGGAA,0.132
